Sequences with one replicate were seen in a single cluster, so their values are uncertain.
What follows are sequences tested on ATP (assay: switch fluorescence ratio, 500 uM ATP over buffer (Cy3 cluster intensity, sum of 5 cycles each) (fold (ratio)); higher = stronger signal-on switching upon ATP binding; sequences stand for … in TCGTCGGCAGCGTCAGATGTGTATAAGAGACAGTTTTTTTTTTTTTTTTTTTTTTTTT…TC). Details: aptamer strand: ATP DNA aptamer (quencher-CACCTGGGGGAGTATTGCGGAGGAAGG + anchor), 100 nM annealed; ATP concentration: 500 uM; one replicate.
Procedure, shortened: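 Five buffer/ATP imaging cycles were run on Cy3-labelled switching-strand clusters on a modified Illumina MiSeq flow-cell, with NaOH stripping and re-annealing between cycles. In each cycle, clusters annealed to 100 nM quencher-labelled ATP aptamer were imaged in selection buffer, then after 15 min with 500 uM ATP at 22 °C. Per cluster, the fluorescence ratio is summed target-cycle over summed buffer-cycle Cy3 intensity, averaged per switch-domain sequence. Only clusters within 100-1000 RFU were kept.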
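Also: ATP exposure 15 min at 22 °C before imaging.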

**Q.** How did the switch fluorescence ratio turn out when AGCAATATAA was run?
**A.** 1.65

**Q.** For AGCAATTTAG, which switch fluorescence ratio is on record?
**A.** 1.28

**Q.** Which switch fluorescence ratio does the source give for AGCACAACTT here?
**A.** 0.995

**Q.** How did the switch fluorescence ratio turn out when AGCACCAA was run?
**A.** 0.991

**Q.** How did the switch fluorescence ratio turn out when AGCACCCAAA was run?
**A.** 1.07

**Q.** Which switch fluorescence ratio does the source give for AGCACCCTA here?
**A.** 1.07

**Q.** With AGCACGCACG as the sequence, how does the switch fluorescence ratio read?
**A.** 1.76

**Q.** Which switch fluorescence ratio does the source give for AGCACGGATA here?
**A.** 1.05

**Q.** Which switch fluorescence ratio does the source give for AGCACGGTAT here?
**A.** 1.13

**Q.** How did the switch fluorescence ratio turn out when AGCAGCAATG was run?
**A.** 1.53

**Q.** With AGCAGCATAA as the sequence, how does the switch fluorescence ratio read?
**A.** 1.31

**Q.** How did the switch fluorescence ratio turn out when AGCAGCATCA was run?
**A.** 1.05

**Q.** How did the switch fluorescence ratio turn out when AGCAGCCGAA was run?
**A.** 1

**Q.** How did the switch fluorescence ratio turn out when AGCAGGCGGT was run?
**A.** 1.04

**Q.** With AGCAGGTCTA as the sequence, how does the switch fluorescence ratio read?
**A.** 1.05

**Q.** How did the switch fluorescence ratio turn out when AGCAGGTCTG was run?
**A.** 0.969

**Q.** AGCATAATTT was tested. Which switch fluorescence ratio did it give?
**A.** 1.03

**Q.** How did the switch fluorescence ratio turn out when AGCATACGGC was run?
**A.** 1.18

**Q.** How did the switch fluorescence ratio turn out when AGCATAGCCG was run?
**A.** 0.994

**Q.** For AGCATATAAT, which switch fluorescence ratio is on record?
**A.** 1.06

**Q.** With AGCATATCG as the sequence, how does the switch fluorescence ratio read?
**A.** 1.03

**Q.** With AGCATCAGTG as the sequence, how does the switch fluorescence ratio read?
**A.** 1.04

**Q.** How did the switch fluorescence ratio turn out when AGCATCGCAC was run?
**A.** 1.02

**Q.** AGCATGGCGT was tested. Which switch fluorescence ratio did it give?
**A.** 1.04

**Q.** Which switch fluorescence ratio does the source give for AGCATTAGGT here?
**A.** 1.01

**Q.** Which switch fluorescence ratio does the source give for AGCATTATGT here?
**A.** 1.01

**Q.** How did the switch fluorescence ratio turn out when AGCATTCTTC was run?
**A.** 1.07

**Q.** How did the switch fluorescence ratio turn out when AGCATTGGAT was run?
**A.** 0.991

**Q.** For AGCCAGATGG, which switch fluorescence ratio is on record?
**A.** 0.998

**Q.** How did the switch fluorescence ratio turn out when AGCCAGCGAG was run?
**A.** 1.03

**Q.** Which switch fluorescence ratio does the source give for AGCCATGAGC here?
**A.** 0.985

**Q.** How did the switch fluorescence ratio turn out when AGCCATTAGG was run?
**A.** 0.91

**Q.** AGCCCACTAC was tested. Which switch fluorescence ratio did it give?
**A.** 1.39

**Q.** Which switch fluorescence ratio does the source give for AGCCCCACAC here?
**A.** 1.28

**Q.** How did the switch fluorescence ratio turn out when AGCCCCGGTT was run?
**A.** 0.995

**Q.** AGCCCGCCAC was tested. Which switch fluorescence ratio did it give?
**A.** 1.72

**Q.** AGCCCGGCGC was tested. Which switch fluorescence ratio did it give?
**A.** 1.03

**Q.** For AGCCCTAGGG, which switch fluorescence ratio is on record?
**A.** 1.01

**Q.** For AGCCCTTTT, which switch fluorescence ratio is on record?
**A.** 0.988

**Q.** For AGCCGAAGAA, which switch fluorescence ratio is on record?
**A.** 1.01

**Q.** AGCCGAGTAT was tested. Which switch fluorescence ratio did it give?
**A.** 0.949

**Q.** With AGCCGATTCT as the sequence, how does the switch fluorescence ratio read?
**A.** 1.02

**Q.** AGCCGCATAG was tested. Which switch fluorescence ratio did it give?
**A.** 5.86

**Q.** Which switch fluorescence ratio does the source give for AGCCGGTTGC here?
**A.** 1.04

**Q.** For AGCCTAAAAG, which switch fluorescence ratio is on record?
**A.** 1.06

**Q.** With AGCCTAGACA as the sequence, how does the switch fluorescence ratio read?
**A.** 0.998

**Q.** For AGCCTCAATC, which switch fluorescence ratio is on record?
**A.** 1.53

**Q.** With AGCCTCACGG as the sequence, how does the switch fluorescence ratio read?
**A.** 1.03

**Q.** With AGCCTCAGCA as the sequence, how does the switch fluorescence ratio read?
**A.** 1.29

**Q.** AGCCTCATGT was tested. Which switch fluorescence ratio did it give?
**A.** 1

**Q.** How did the switch fluorescence ratio turn out when AGCCTGAGTG was run?
**A.** 0.986

**Q.** With AGCCTGGTAT as the sequence, how does the switch fluorescence ratio read?
**A.** 1

**Q.** With AGCCTGGTTA as the sequence, how does the switch fluorescence ratio read?
**A.** 0.998

**Q.** How did the switch fluorescence ratio turn out when AGCCTTCTGA was run?
**A.** 1.25

**Q.** Which switch fluorescence ratio does the source give for AGCGAACCAG here?
**A.** 1.23

**Q.** With AGCGAAGCGC as the sequence, how does the switch fluorescence ratio read?
**A.** 1.02

**Q.** AGCGACACAA was tested. Which switch fluorescence ratio did it give?
**A.** 2.05

**Q.** AGCGACTAGG was tested. Which switch fluorescence ratio did it give?
**A.** 1.02

**Q.** Which switch fluorescence ratio does the source give for AGCGATGGCT here?
**A.** 1.06

**Q.** Which switch fluorescence ratio does the source give for AGCGATGTCC here?
**A.** 1.22

**Q.** AGCGATTAAC was tested. Which switch fluorescence ratio did it give?
**A.** 1.9

**Q.** With AGCGCATACG as the sequence, how does the switch fluorescence ratio read?
**A.** 1.18

**Q.** AGCGCCATTC was tested. Which switch fluorescence ratio did it give?
**A.** 1.19

**Q.** Which switch fluorescence ratio does the source give for AGCGCCGGTA here?
**A.** 1.05

**Q.** With AGCGCGTGCG as the sequence, how does the switch fluorescence ratio read?
**A.** 0.954

**Q.** For AGCGGATCAA, which switch fluorescence ratio is on record?
**A.** 0.993

**Q.** How did the switch fluorescence ratio turn out when AGCGGCGATG was run?
**A.** 0.945

**Q.** AGCGGGAGCA was tested. Which switch fluorescence ratio did it give?
**A.** 0.931

**Q.** For AGCGGGAGCG, which switch fluorescence ratio is on record?
**A.** 1.02

**Q.** How did the switch fluorescence ratio turn out when AGCGGGCTGT was run?
**A.** 1.01

**Q.** AGCGGGTCCA was tested. Which switch fluorescence ratio did it give?
**A.** 1.06

**Q.** Which switch fluorescence ratio does the source give for AGCGGTAACC here?
**A.** 1.04

**Q.** AGCGGTCGG was tested. Which switch fluorescence ratio did it give?
**A.** 0.993

**Q.** With AGCGGTTAAA as the sequence, how does the switch fluorescence ratio read?
**A.** 0.985

**Q.** For AGCGTAAGCT, which switch fluorescence ratio is on record?
**A.** 0.994

**Q.** Which switch fluorescence ratio does the source give for AGCGTAGTC here?
**A.** 0.969

**Q.** How did the switch fluorescence ratio turn out when AGCGTCAGGA was run?
**A.** 0.984

**Q.** How did the switch fluorescence ratio turn out when AGCGTTCGAA was run?
**A.** 1.02

**Q.** AGCTAACGGT was tested. Which switch fluorescence ratio did it give?
**A.** 1.05

**Q.** With AGCTACCGGC as the sequence, how does the switch fluorescence ratio read?
**A.** 1.05

**Q.** Which switch fluorescence ratio does the source give for AGCTACGCTT here?
**A.** 1.02

**Q.** AGCTAGAGTT was tested. Which switch fluorescence ratio did it give?
**A.** 0.997

**Q.** Which switch fluorescence ratio does the source give for AGCTATGACA here?
**A.** 0.995

**Q.** AGCTATGGCT was tested. Which switch fluorescence ratio did it give?
**A.** 0.981

**Q.** How did the switch fluorescence ratio turn out when AGCTCCTCA was run?
**A.** 1.01
